{"source": "PubChem BioAssay AID445", "about": "(National Center for Advancing Translational Sciences (NCATS), 2006)", "note": "Screen size: about 110,000 compounds; about 40 (0.04%) were called active. The inconclusive results got no clear call from the source; some entries with a clear call stand among them for comparison. Calls come from the whole dose curve; as a rule, active = well fitted curve in the direction sought with a large enough effect in the signal ratio (not every such curve was filed as active); inconclusive = small, poorly fitted or top-dose-only effect, or a change in a side signal; inactive = flat fitted curve, though single readings scatter; the % refers to the signal ratio. Where the call is inconclusive, the potency comes from a doubtful curve fit. Potency is the fitted concentration of half-maximal effect."}
{"test": "IkB Signaling;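 for IkBa stabilization activation: 0% = basal untreated cells and 100% = reference inhibitor full response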", "conditions": "ABC-DLBCL IkBa-CBG/CBR dual luciferase ratio (green luciferase fused to IkBa over red control in OCI-Ly3 lymphoma cells), 4 h; IkBa stabilization activation: at 57.1 µM (top of the series), scaled: untreated 0%, proteasome inhibitor 100% unless noted", "how_it_was_run": "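Luminescence ratio of IκBα-fused green versus native red beetle luciferase in OCI-Ly3 cells, 4 h post-doxycycline with compound; red signal alone, scaled from basal (0%) to zero light (-100%), flagged nonspecific or cytotoxic effects.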"}
{"smiles": "COc1ccc(C2(O)CC3CCC(C2)N3c2cc(C)nc(-c3ccccc3)n2)cc1", "note": "(stereo not given)", "IkBa stabilization activation": "inconclusive: 1.64% [signal inhibitor]"}
{"smiles": "O=c1c(-c2ccc(F)c(F)c2)nc2cncnc2n1Cc1ccc(F)cc1", "IkBa stabilization activation": "inactive: 2.02% [at 11.4 µM, scaled: untreated 0%, proteasome inhibitor 100%]"}
{"smiles": "Cc1ccc(N2CC(NC(=O)CCc3ccccc3)CC2=O)cc1", "note": "(stereo not given)", "IkBa stabilization activation": "inconclusive: 3.76% [signal inhibitor]"}
{"smiles": "COc1cccc(CSc2nc3n(n2)C(c2cccnc2)C(C(=O)Nc2ccccc2C)=C(C)N3)c1", "note": "(stereo not given)", "IkBa stabilization activation": "inconclusive: -0.121% [signal inhibitor]"}
{"smiles": "COc1ccccc1NC(=O)CN(Cc1ccco1)C(=O)c1cccs1", "IkBa stabilization activation": "inconclusive: 2.4% [signal inhibitor]"}
{"smiles": "Cc1nc2cc(C(=O)O)ccc2n1-c1ccc(C(C)C)cc1", "IkBa stabilization activation": "inactive: 0.133%"}
{"smiles": "c1ccc2c(-n3ccnc3)nc(-c3ccoc3)nc2c1", "IkBa stabilization activation": "inactive: 1.38% [at 11.4 µM, scaled: untreated 0%, proteasome inhibitor 100%]"}
{"smiles": "Cc1cccc(N2CCN(C(=O)Cn3c(=O)c4cccn4c4ccc(F)cc43)CC2)c1C", "IkBa stabilization activation": "inconclusive: -1.63% [signal inhibitor]"}
{"smiles": "O=c1cc(-c2ccccc2)[nH]c2nc3ccccc3n12", "Potency": "inconclusive: 6.31 µM [signal inhibitor, partial curve, poor fit]"}
{"smiles": "COc1cc(NS(=O)(=O)c2ccc3oc(=O)c4ncn(C)c4c3c2)cc(OC)c1", "IkBa stabilization activation": "inactive: 3.66%"}
{"smiles": "Cc1onc(-c2ccccc2Cl)c1C(=O)NCCn1c(C)cc2ccccc21", "IkBa stabilization activation": "inactive: -1.85%"}
{"smiles": "CCc1ccc(-c2cc(C)no2)cc1S(=O)(=O)Nc1ccc(Cl)cc1", "IkBa stabilization activation": "inconclusive: 10.3% [signal inhibitor]"}
{"smiles": "COc1ccc(-c2noc(-c3ccc(NC(C)c4ccccc4)c([N+](=O)[O-])c3)n2)cc1OC", "note": "(stereo not given)", "IkBa stabilization activation": "inconclusive: 3.22% [signal inhibitor]"}
{"smiles": "CCOc1ccccc1CN(CCc1ccc2c(c1)OCO2)Cc1cccc(OC)c1OC", "IkBa stabilization activation": "inconclusive: 2.73% [signal inhibitor]"}
{"smiles": "CC(=O)Nc1ccc(S(=O)(=O)NCCc2csc3nc(-c4cccc(C)c4)nn23)cc1", "IkBa stabilization activation": "inactive: -0.463%"}
{"smiles": "Cc1ccc(N(Cc2cccs2)C(=O)COc2ccccc2[N+](=O)[O-])cc1", "IkBa stabilization activation": "inconclusive: 4.6% [signal inhibitor]"}
{"smiles": "O=C(NCc1ccccc1Cl)C1CCC(CNS(=O)(=O)c2ccc(Br)s2)CC1", "note": "(stereo not given)", "IkBa stabilization activation": "inactive: 0.0108%"}
{"smiles": "Cc1cccc(-c2nc(Cn3c(SCc4cc(C)ccc4C)nc4ccncc43)c(C)o2)c1", "IkBa stabilization activation": "inconclusive: 2.29% [signal inhibitor]"}
{"smiles": "COc1ccc(CCNC(=O)c2nn(C)c3c2CSc2ccccc2-3)cc1OC", "IkBa stabilization activation": "inconclusive: -2.94% [signal inhibitor]"}
{"smiles": "CCC(SC1=Nc2ccccc2C2=NC(CC(C)C)C(=O)N12)C(=O)Nc1ccc2c(c1)OCO2", "note": "(stereo not given)", "IkBa stabilization activation": "inconclusive: -1.93% [signal inhibitor]"}
{"smiles": "CCN(CC)c1nc2ccccc2n2cnnc12", "IkBa stabilization activation": "inactive: 0.28%"}
{"smiles": "Nc1nnc(SCC(=O)c2ccccc2)s1", "Potency": "inconclusive: 25.1 µM [signal inhibitor, partial curve]"}
{"smiles": "Cc1ccc2c(CC(=O)OCc3nc(N)nc(Nc4ccccc4C)n3)coc2c1", "IkBa stabilization activation": "inconclusive: 2.22% [signal inhibitor]"}
{"smiles": "O=C(CCCn1c2ccccc2c(=O)c2ccccc21)Nc1ccc(F)cc1Cl", "IkBa stabilization activation": "inconclusive: 9.87% [signal inhibitor]"}
{"smiles": "CC(C)[C@H](NC(=O)OC(C)(C)C)c1nnc(S(=O)(=O)Cc2c(F)cccc2Cl)o1", "Potency": "inconclusive: 6.31 µM [rising, single point]"}
{"smiles": "Clc1ccc(OCc2nnc(SCc3nnc(-c4ccccc4)o3)o2)c(Cl)c1", "IkBa stabilization activation": "inconclusive: 14.5% [signal inhibitor]"}
{"smiles": "Cc1occc1C(=O)Nc1cccc2ccccc12", "IkBa stabilization activation": "inconclusive: 8.78% [signal inhibitor]"}
{"smiles": "CC(C)(C)c1ccc(Cn2nnc3c(=O)[nH]c(C4CCCN(C(=O)Cc5cccs5)C4)nc32)cc1", "note": "(stereo not given)", "IkBa stabilization activation": "inconclusive: 0.348% [signal inhibitor]"}
{"smiles": "Cc1ccc2c(COn3nnc4ccc(S(=O)(=O)N(C)C)cc43)cc(=O)oc2c1C", "IkBa stabilization activation": "inconclusive: 1.09% [signal inhibitor]"}
{"smiles": "COc1ccc([C@H](O)c2ccccn2)cc1", "IkBa stabilization activation": "inactive: 0.0602% [at 11.4 µM, scaled: untreated 0%, proteasome inhibitor 100%]"}
{"smiles": "c1ccc(-c2noc(-c3ccc4ccccc4c3)n2)nc1", "Potency": "inconclusive: 6.31 µM [signal inhibitor, partial curve]"}
{"smiles": "COc1cc(C2c3c(-c4ccccc4O)n[nH]c3C(=O)N2CCO)ccc1OCC(C)C", "note": "(stereo not given)", "IkBa stabilization activation": "inconclusive: 3.23% [signal inhibitor]"}
{"smiles": "COc1ccc(NC(=O)c2oc3ccc(S(=O)(=O)N4CCC5(CC4)OCCO5)cc3c2C)cc1Cl", "IkBa stabilization activation": "inconclusive: 1.54% [signal inhibitor]"}
{"smiles": "CCOC(=O)c1c(C)c2c(n1C)CCC/C2=N\\O", "IkBa stabilization activation": "inactive: -1.79%"}
{"smiles": "CC1CCN(S(=O)(=O)c2cc(Br)cc(C(=O)NC3=NCCS3)c2)CC1", "IkBa stabilization activation": "inconclusive: -3.46% [signal inhibitor]"}
{"smiles": "COc1ccccc1CNC(=O)c1cc2ccc3ccc(C)[nH]c3c2n1", "IkBa stabilization activation": "inconclusive: 2.08% [signal inhibitor]"}
{"smiles": "Cc1ccccc1CSCCNC(=O)CN(c1ccccc1)S(=O)(=O)N(C)C", "IkBa stabilization activation": "inconclusive: 2.05% [signal inhibitor]"}
{"smiles": "CCn1nnc2cc(C(=O)Nc3cccc(C)c3C)ccc21", "IkBa stabilization activation": "inactive: -2.84%"}
{"smiles": "Cc1cc(Cl)ccc1NC(=O)c1cc2ccccn2n1", "IkBa stabilization activation": "inactive: 4.82%"}
{"smiles": "Cc1ccc2occ(CC(=O)N3CCN(c4cccc(Cl)c4)CC3)c2c1", "IkBa stabilization activation": "inconclusive: 6.19% [signal inhibitor]"}
{"smiles": "Cc1ccc(CNC(=O)CSC2=Nc3ccccc3C3=NC(C)C(=O)N23)cc1", "note": "(stereo not given)", "IkBa stabilization activation": "inactive: 0.839%"}
{"smiles": "CC(=O)Nc1cccc(NC(=O)C(=O)NCCc2csc3nc(-c4ccccc4F)nn23)c1", "IkBa stabilization activation": "inconclusive: 4.56% [signal inhibitor]"}
{"smiles": "CCOC(=O)c1ccccc1NC(=O)c1nn(C)c2c1COc1ccccc1-2", "IkBa stabilization activation": "inconclusive: 3.27% [signal inhibitor]"}
{"smiles": "Cc1ccc(OCc2nnc(-c3ccccc3)o2)cc1", "IkBa stabilization activation": "inactive: 0.86%"}
{"smiles": "COc1ccccc1N1CCN(S(=O)(=O)c2ccc(-c3cnc(C4CC4)o3)cc2)CC1", "IkBa stabilization activation": "inconclusive: 1.77% [signal inhibitor]"}
{"smiles": "Cc1cccc(C(=O)Nc2cccc(OCc3cc(=O)n4ccccc4n3)c2)c1", "IkBa stabilization activation": "inconclusive: 4.96% [signal inhibitor]"}
{"smiles": "COc1cc(OC)c(NC(=O)c2c3c(nc4ccccc24)C(=O)N(C2CCCCC2)C3)cc1Cl", "Potency": "inconclusive: 12.6 µM [signal inhibitor]"}
{"smiles": "CCCCc1ccc(NC(=O)CSc2nnc3[nH]c(=O)cc(C)n23)cc1", "IkBa stabilization activation": "inactive: 6.62%"}
{"smiles": "CCSc1nnc(NC(=O)CSc2nccn2-c2cc(C)cc(C)c2)s1", "IkBa stabilization activation": "inconclusive: 11.6% [signal inhibitor]"}
{"smiles": "CCCCOC(=O)Sc1nc2ccccc2o1", "IkBa stabilization activation": "inconclusive: 0.779% [signal inhibitor]"}
{"smiles": "CCCN(CCC)C(=O)CSc1nnc2cc(C)c3ccccc3n12", "IkBa stabilization activation": "inconclusive: 1.81% [signal inhibitor]"}
{"smiles": "CCN(CCO)C[C@H]1CCC[C@H]2CCCC[C@@H]21", "IkBa stabilization activation": "inactive: 1.58% [at 11.4 µM, scaled: untreated 0%, proteasome inhibitor 100%]"}
{"smiles": "Cc1cc(C)c(Cn2c3ccccc3c3cnn(CC(=O)NCC(C)c4ccccc4)c(=O)c32)c(C)c1", "note": "(stereo not given)", "IkBa stabilization activation": "inconclusive: 0.597% [signal inhibitor]"}
{"smiles": "COc1cc(OC)c(NC(=O)CCNS(=O)(=O)c2ccc3c(c2)oc(=O)n3C)cc1Cl", "IkBa stabilization activation": "inconclusive: 1.47% [signal inhibitor]"}
{"smiles": "COc1ccc(-n2c(CCC(=O)O)ccc2-c2ccccc2)c(OC)c1", "IkBa stabilization activation": "inconclusive: 15.6% [signal inhibitor]"}
{"smiles": "COc1cc(C2=NOC(C(=O)N3CCCCCC3)C2)cc(OC)c1OC", "note": "(stereo not given)", "IkBa stabilization activation": "inactive: 1.19%"}
{"smiles": "CC(=O)Nc1ccc(S(=O)(=O)N(Cc2ccccc2)Cc2ccccc2)cc1", "Potency": "inconclusive: 39.8 µM [signal inhibitor]"}
{"smiles": "COc1cccc(-c2ccc3c(N)c(C(=O)Nc4ccccc4C)sc3n2)c1", "IkBa stabilization activation": "inconclusive: 5.22% [signal inhibitor]"}
{"smiles": "Cc1ccc(-c2cc3nc(C)cc(NCc4ccco4)n3n2)cc1", "IkBa stabilization activation": "inconclusive: 3.55% [signal inhibitor]"}
{"smiles": "COc1cccc(NC(=O)CCN2CCN(CCO)CC2)c1", "IkBa stabilization activation": "inactive: -5.25%"}
{"smiles": "CC(C)CCNC(=O)c1ccc2c(c1)nc1n2CCCCC1", "IkBa stabilization activation": "inconclusive: 1.05% [signal inhibitor]"}
{"smiles": "Cc1sc2nc(-c3cccs3)nc(N3CCCN(C)CC3)c2c1C", "IkBa stabilization activation": "inconclusive: 1.58% [signal inhibitor]"}
{"smiles": "CCN1CCN(S(=O)(=O)c2ccc3[nH]c(=O)oc3c2)CC1", "IkBa stabilization activation": "inactive: 0.126%"}
{"smiles": "Nc1ccc2oc(Cc3ccc(Cl)cc3)nc2c1", "IkBa stabilization activation": "inconclusive: 1.66% [signal inhibitor]"}
{"smiles": "COc1ccc(C)cc1NC(=O)Cc1c(C(=O)O)c(C)cn1C", "IkBa stabilization activation": "inactive: 0.865%"}
{"smiles": "CCC(C)SCc1nc2ccccc2[nH]1", "note": "(stereo not given)", "IkBa stabilization activation": "inactive: 2.23%"}
{"smiles": "Cc1cc(-c2ccc(S(=O)(=O)Nc3cccc(Cl)c3C)cc2)on1", "IkBa stabilization activation": "inconclusive: 3.5% [signal inhibitor]"}
{"smiles": "COc1ccc(N(C)C(=O)c2cc3c(s2)-c2ccccc2OC3)cc1", "IkBa stabilization activation": "inconclusive: -2.02% [signal inhibitor]"}
{"smiles": "Cc1ccc(Cl)cc1N1CCN(C(=O)C2CCCN(Cc3nc(-c4cccc(Cl)c4)oc3C)C2)CC1", "note": "(stereo not given)", "IkBa stabilization activation": "inconclusive: -1.41% [signal inhibitor]"}
{"smiles": "CCCCNc1nc2c(c(=O)n(Cc3ccccc3)c(=O)n2C)n1C", "IkBa stabilization activation": "inconclusive: 3.33% [signal inhibitor]"}
